Some of the results follow. Shown are side measurements of this screen, not its main read-out; they come without a call. Most of these compounds were active or inconclusive in the main read-out, so they are no random draw. Potencies come from curve fits of mixed quality, noted in brackets.
Tags describe the fitted curve by direction and shape.

The test in a line: Cell-based coincidence reporter assay to measure PMP22 gene transcription in S16 Pmp22-F2sN cells - Confirmatory screen (AID 1508646). The following applies: S16 Schwann cells Pmp22-F2sN, dual luciferase, 24 h; measured here: NLuc reporter channel. The method in brief:
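S16 Schwann cells carrying a bioluminescent reporter in the Pmp22 3' UTR (Pmp22-F2sN) were treated with compounds for 24 h at 37C, then lysed; FLuc and then NLuc luminescence were read sequentially with a dual-luciferase kit on a CCD imager.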
Consider `COc1ccc(Nc2c3c(nc4ccccc24)CCC3)cc1Cl`, for which the AC50 is 27.3 µM [falling, partial curve].

In the case of `Cc1ccc(CNC(=O)Cn2c(=O)n(Cc3ccccc3)c(=O)c3sc4ccccc4c32)cc1`, the AC50 is 19.3 µM [falling, partial curve].

With `CCN(CC)CCCNC(=O)c1ccc2c(c1)sc1nc(-c3ccc(C)cc3)cn12`, the AC50 was 15.3 µM [falling, full curve].

As to `Cc1nnc(SCC(=O)NCc2ccccc2Cl)c2nn(-c3ccccc3)c(C)c12`, the AC50 is 17.2 µM [falling, partial curve].

Consider `CN(C)CCNC(=O)c1ccc(-n2c(-c3ccccc3)cc3c2CCCC3)cc1`, for which the AC50 was 21.7 µM [falling, partial curve].

As to `CCCn1c2ccccc2c2cnn(CC(=O)NCC3CCN(Cc4ccc(C)cc4)CC3)c(=O)c21`, the AC50 was 24.3 µM [falling, partial curve].

As for `Cc1ccc(OCCSc2nc3ccc(NC(=O)c4ccc5c(c4)OCO5)cc3s2)cc1`, the AC50 is 21.7 µM [falling, partial curve].

For the compound `Cc1ccc(CCNC(=O)C2CCN(c3nnc(-n4cccc4CNc4ccc(C)cc4)s3)CC2)cc1`, the AC50 was 19.3 µM [falling, partial curve].

Regarding `COc1ccc(NC(=O)CCS(=O)(=O)c2nc(-c3cccs3)cc(C(F)(F)F)n2)cc1`, the AC50 was 12.2 µM [falling, partial curve].

With `COc1nnc(-c2ccc(N3CCCCC3)c(NC(=O)c3ccccc3)c2)c2ccccc12`, the AC50 is 43.2 µM [falling, partial curve].

The values are drawn from PubChem BioAssay (NCATS).
